In PubChem BioAssay AID1240 (Sanford-Burnham Center for Chemical Genomics, 2008):
Among all 50,000 compounds or so, about 800 (1.6%) showed an effect of 50% or more. This is one part of the list.

What follows are compounds tested against Bcl-2-like protein 10 (Homo sapiens) (UniProt Q9HD36) (assay: TR3 peptide-Bcl-B binding displacers, biochemical primary FP assay, phenotype converters (AID 1240;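 further: 0% = Bcl-B with tracer peptide and DMSO and 100% = tracer peptide lacking Bcl-B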)). Conditions: GST-Bcl-B / FITC-TR3 peptide fluorescence polarization; stronger effect = higher value; compound at 3.75 mg/L.
UniProt Q9HD36, sequence (Q9HD36 whole entry, looked up): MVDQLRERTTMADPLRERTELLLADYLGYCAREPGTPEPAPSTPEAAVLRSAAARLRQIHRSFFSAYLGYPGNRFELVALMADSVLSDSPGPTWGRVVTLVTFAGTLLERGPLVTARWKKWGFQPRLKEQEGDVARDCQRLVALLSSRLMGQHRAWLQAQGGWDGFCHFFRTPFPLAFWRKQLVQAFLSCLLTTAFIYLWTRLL

Compared with `COc1ccc(CCNC(=O)CN(c2cccc([N+](=O)[O-])c2)S(=O)(=O)c2ccccc2)cc1OC`, `C=CCNC(=O)CN(c1ccc(OC)cc1)S(=O)(=O)c1ccc(OC)c(OC)c1` is lower in displacement: 1.7% for the first, 0.9% for the second.

Compared with `CC(C)CC(=O)NS(=O)(=O)c1ccc(NC(=O)c2ccco2)cc1`, `CC(=O)Nc1ccc(C(=O)Nc2ccc([N+](=O)[O-])cc2)cc1` is lower in displacement: 16.9% for the first, 4.7% for the second.

First: C=C(C)Cn1c(-c2ccc(OC)c(OC)c2)n[nH]c1=S
Second: COc1cc2nc(-c3cccc(Br)c3)oc(=O)c2cc1OC
The displacement of the first is lower: -2.8% for the first, 13.1% for the second.

First: NC(=O)c1ccccc1NC(=O)N1CCOCC1
Second: O=C(O)CCC(=O)NCC1(c2ccccc2)CCOCC1
The displacement of the first is higher: 13.1% for the first, -3.7% for the second.

Going from `COc1cc(OC)cc(C(=O)Nc2cccc(Cl)c2Cl)c1` to `CCOc1cc(OCC)cc(C(=O)Nc2cc([N+](=O)[O-])ccc2Cl)c1`, the displacement falls from 14.5% to -4.7%.

Compared with `O=C(CSc1ncccn1)NCc1ccccc1`, `COc1ccc(OC)c(/C=N/NC(=O)CSc2ncccn2)c1` is lower in displacement: 4.5% for the first, 1.1% for the second.

Going from `O=C1NC(c2ccccc2)=C(c2ccc3ccccc3n2)C(c2ccncc2)N1` (stereo not drawn) to `CN(c1ccccc1)c1ccc(/C=C2\N=C(c3ccccc3)OC2=O)cc1`, the displacement falls from 13.7% to 3.3%.

Compared with `O=c1c2c3c(sc2ncn1/N=C/c1c[nH]c2ccccc12)CCCC3`, `CCc1ccc(NC(=O)CSc2nc3sc4c(c3c(=O)n2-c2ccccc2)CCCC4)cc1` is lower in displacement: -1.5% for the first, -13.8% for the second.

First: Cc1ccc(/C=c2\sc3nnc(-c4ccccc4)n3c2=O)cc1
Second: Cc1ccc(N=Cc2c(O)n(-c3ccccc3)c(=O)[nH]c2=O)cc1
The displacement of the first is lower: -30.1% for the first, -5.6% for the second.

Compared with `C/C(=N\Nc1c(Cl)cc(Cl)cc1Cl)c1ccccn1`, `Oc1ccccc1-c1cc(-c2ccccc2Cl)[nH]n1` is higher in displacement: -7% for the first, 0.5% for the second.

Going from `O=C(Nc1ccccc1Br)C12CC3CC(CC(C3)C1)C2` to `C=CCCCC(=O)Nc1ccccc1Br`, the displacement rises from -0.7% to 11.7%.

First: CCOC(=O)c1ccccc1NS(=O)(=O)c1cccs1
Second: COc1ccccc1C(=O)Nc1cccc(C(C)=O)c1
The displacement of the first is higher: 7.5% for the first, -1% for the second.

First: CC1=C(C)CC2C(=O)C3=C(C(=O)C2C1)C1c2ccccc2C3c2ccccc21 (stereo not drawn)
Second: CC(=O)C12c3ccccc3C(c3ccccc31)C1C(=O)N(c3cc(C(F)(F)F)ccc3Cl)C(=O)C12 (stereo not drawn)
The displacement of the first is lower: -3.5% for the first, 12.6% for the second.

Compared with `COc1ccc(-n2nc3cc(C)c(NC(=O)COc4ccc(Cl)cc4C)cc3n2)cc1`, `Cc1cccnc1NC(=O)COc1ccc(Br)cc1` is lower in displacement: 2.8% for the first, -0.3% for the second.

Compared with `O=C1NC(=O)N(c2ccc(Cl)cc2)C(=O)/C1=C/c1ccc(F)cc1`, `O=C1NC(=O)C(=Cc2ccc(OCc3cccc4ccccc34)cc2)C(=O)N1` is lower in displacement: 8.2% for the first, 7% for the second.

Going from `Cc1ccc(Br)cc1S(=O)(=O)N1CCN(Cc2ccccc2)CC1` to `COc1ccc(Br)cc1CN1CCN(Cc2cccnc2)CC1`, the displacement falls from -3.5% to -18.6%.

Going from `O=C(CCC(=O)OCC(F)(F)C(F)F)Nc1ccc(Cl)cc1Cl` to `N#Cc1ccccc1NC(=O)CC1Sc2ccc(C(F)(F)F)cc2NC1=O` (stereo not drawn), the displacement falls from 15.4% to -10.4%.

First: Cc1ccc(NC(=O)c2ccccc2[N+](=O)[O-])c(C)c1
Second: COc1ccc(OCCNC(=O)c2ccccc2[N+](=O)[O-])cc1
The displacement of the first is higher: 9% for the first, 6.4% for the second.

First: COc1cc(/C=N/NS(=O)(=O)c2ccc3ccccc3c2)ccc1OCC(N)=O
Second: COc1ccc(CCNS(=O)(=O)c2ccc(Cl)cc2)cc1OC
The displacement of the first is higher: 9.7% for the first, 0.8% for the second.

Compared with `COc1ccc(C2CC(=O)C3=C(C2)Nc2ccccc2NC3c2ccc([N+](=O)[O-])cc2)cc1` (stereo not drawn), `COc1ccc(C2Nc3ccccc3C(=O)N2c2ccc(Br)cc2)cc1` (stereo not drawn) is higher in displacement: -5.3% for the first, 7.2% for the second.

Going from `O=C(O)CN1C(=O)c2cccc3c(Br)ccc1c23` to `Cc1ccc([N+](=O)[O-])cc1NC(=O)CN1C(=O)c2ccccc2C1=O`, the displacement falls from 15.2% to -9.1%.

Compared with `COc1ccc(OC)c(-c2nc(-c3ccccc3)c(-c3cccs3)[nH]2)c1`, `COc1ccccc1-c1cc(-c2ccc(Br)cc2)nc(=O)[nH]1` is lower in displacement: 15.1% for the first, -9% for the second.

Compared with `COC(=O)C1=NN(C(=O)c2cccc(OC)c2)C(C)(O)C1` (stereo not drawn), `CCC(Oc1ccccc1)C(=O)Nc1sc(C)c(C)c1C(=O)OC` (stereo not drawn) is higher in displacement: -5.7% for the first, -4.2% for the second.

Compared with `Cc1ccc(NC(=O)C(=O)NCCC(C)C)c(C)c1`, `CCOc1ccccc1NC(=O)C(=O)NCC(C)C` is lower in displacement: 5.6% for the first, -0.6% for the second.

First: O=C(/C=C/Nc1cccc(O)c1)c1ccc(Br)cc1
Second: COC(=O)c1c(C)oc2ccc(OC(=O)c3ccc(Br)cc3)cc12
The displacement of the first is lower: -2.9% for the first, 10.8% for the second.

Going from `CCOc1ccc2c(c1)C(C)=CC(C)(C)N2C(=O)CN1C(=O)c2ccccc2C1=O` to `COC(=O)Cn1cc(/C=C2\C(=O)NC(=O)N(c3cc(C)cc(C)c3)C2=O)c2ccccc21`, the displacement rises from -5.7% to -4.6%.

Compared with `C=CCN1C(=O)/C(=C\c2cc(Br)c(OCc3ccc(F)cc3)c(OC)c2)SC1=S`, `CCN1C(=O)/C(=C\c2ccc(OCc3ccccc3Cl)cc2)SC1=S` is higher in displacement: 5.5% for the first, 15.9% for the second.

Going from `Nc1nc(-c2ccc(-n3nncc3-c3ccccc3)cc2)cs1` to `CCOc1ccc(Nc2nc(-c3cccnc3)cs2)cc1`, the displacement rises from -10.4% to 14.9%.

First: CN(C)CC(Oc1ccc(Cl)cc1)C(=O)O (stereo not drawn)
Second: COC(=O)CN(c1ccc(OC)cc1)S(C)(=O)=O
The displacement of the first is lower: 5.9% for the first, 8% for the second.

Compared with `O=C1C(Cl)=C(N2CCN(c3ccccc3)CC2)C(=O)N1c1cccc(Cl)c1`, `O=C1c2cccc3cccc(c23)C(=O)N1CC1CCN(S(=O)(=O)c2ccccc2)CC1` is higher in displacement: -7.1% for the first, 5.8% for the second.

Compared with `CCNC(=S)Nc1cccc(Cl)c1`, `COCCNC(=S)Nc1ccc(OC)cc1` is higher in displacement: -5.9% for the first, 12.1% for the second.

Compared with `O=C(NCCN1CCOCC1)c1cc2nc(-c3ccc([N+](=O)[O-])cc3)cc(C(F)(F)F)n2n1`, `COc1cc(/C=N/NC(=O)CN2CCOCC2)c([N+](=O)[O-])cc1OC` is lower in displacement: 5.7% for the first, -14.3% for the second.

Compared with `COc1ccccc1C1C(C(C)=O)=C(O)C(=O)N1CCN1CCNCC1` (stereo not drawn), `CCc1ccc(NC(=O)C(=O)NCCN2CCN(C(=O)c3ccccc3Br)CC2)cc1` is higher in displacement: -10.3% for the first, 10.4% for the second.

Going from `C/C(=N\NC(=O)c1ccc(N2CCCC2=O)cc1)c1ccccc1` to `O=C(O)c1ccc(N2Cc3ccccc3C2)cc1`, the displacement rises from 5.4% to 14%.

Compared with `CCc1cccc(C)c1NS(=O)(=O)c1ccc(F)cc1`, `O=C(/C=C/c1ccc(F)cc1)NC(=S)Nc1ccccc1Cl` is lower in displacement: 0% for the first, -7.4% for the second.

Going from `O=C(Nc1cc(C(F)(F)F)cc(C(F)(F)F)c1)c1c(F)cccc1F` to `COc1ccc(Br)cc1C(=O)Nc1ccc(F)c([N+](=O)[O-])c1`, the displacement rises from -16.7% to 13.4%.

Compared with `Cc1ccc(/C=C2\C=C(c3ccc(Cl)cc3)OC2=O)o1`, `Cc1onc(-c2ccccc2Cl)c1C(=O)NCCc1nc2ccccc2[nH]1` is lower in displacement: 22.1% for the first, 2.6% for the second.

First: Oc1ccc(Nc2nc(Nc3ccc(O)cc3)nc(N3CCOCC3)n2)cc1
Second: O=C(c1cc(-c2ccc(Br)cc2)nc2ccccc12)N1CCCCC1
The displacement of the first is higher: -4.2% for the first, -12.9% for the second.

Compared with `COc1ccc(C(=O)N2CCN(C(=O)c3ccc([N+](=O)[O-])cc3)CC2)cc1OC`, `COc1cc(-c2noc(-c3ccc([N+](=O)[O-])cc3)n2)cc(OC)c1OC` is higher in displacement: -8.4% for the first, 10.2% for the second.

Compared with `CC(C)=CC/C=C1\CCC2C(=O)N(c3ccccc3)C(=O)C2C1` (stereo not drawn), `O=C1C2C3C=CC(CC3)C2C(=O)N1c1ccc2c(c1)OCO2` (stereo not drawn) is higher in displacement: -1.6% for the first, 7.1% for the second.

Going from `C=CCN=C(C)C1=C(O)c2ccccc2C1=O` to `C/C(=N\N=C1/NC(=O)C(CC(=O)O)S1)c1ccccc1` (stereo not drawn), the displacement rises from -4% to 0.5%.

Going from `COc1cc(/C=c2\sc3n(c2=O)C(c2c(OC)ccc4ccccc24)C(C(C)=O)=C(C)N=3)cc(OC)c1OC` (stereo not drawn) to `COc1cccc(C2C(C(=O)Nc3ccccc3)=C(C)N=c3s/c(=C\c4sccc4C)c(=O)n32)c1` (stereo not drawn), the displacement rises from 14.2% to 46.7%.

Going from `CC(C)N1CCC(=NNC(=O)c2ccc(C(C)(C)C)cc2)CC1` to `NC(=O)C1CCN(C(=O)COc2cccc3ccccc23)CC1`, the displacement rises from -11% to 0.4%.

First: CC(C)OC(=O)C1C(=O)CC(C)(O)C(C(=O)OC(C)C)C1c1ccc([N+](=O)[O-])cc1 (stereo not drawn)
Second: CC1(C)CC(=O)C2=C(C1)NC1=C(C(=O)c3ccccc31)C2c1ccc(OC(=O)/C=C/c2ccc([N+](=O)[O-])cc2)cc1 (stereo not drawn)
The displacement of the first is lower: 3.3% for the first, 15.9% for the second.

Compared with `COc1cc(C2Nc3ccc4ccccc4c3C3=C2C(=O)CC(C)(C)C3)cc(OC)c1O` (stereo not drawn), `COc1cc(Cl)c(NC(=O)c2cc3ccccc3cc2O)c(OC)c1` is higher in displacement: 4.7% for the first, 8.9% for the second.

First: Cc1ccc(OCC(=O)O/N=C(\N)c2cccc([N+](=O)[O-])c2)c(C)c1
Second: O=[N+]([O-])c1ccc2c(c1)S(=O)(=O)NC2=NCc1ccccc1
The displacement of the first is lower: -9.4% for the first, 12.6% for the second.

Compared with `CC(C)(C)C1CCc2c(sc(NC(=O)C3CC4CCC3C4)c2C(N)=O)C1` (stereo not drawn), `CCOC(=O)c1cc(C)sc1NC(=O)c1sc2cc(F)ccc2c1Cl` is higher in displacement: -14.2% for the first, -3.4% for the second.

First: CC1(C)CC(N2CCC(=O)NC2=S)CC(C)(C)N1
Second: CC(=O)OCC12COC(C)(CC1C)CC2C (stereo not drawn)
The displacement of the first is lower: -7.9% for the first, 11.1% for the second.

Going from `Cc1ccc(NCC(=O)N/N=C\C=C\c2ccco2)cc1` to `CCN(CC)c1ccc(NC(=O)c2cccs2)cc1`, the displacement falls from -0.4% to -0.9%.

Compared with `CCN(CC)CCN1C(=O)c2ccccc2NC1c1ccc2c(c1)OCO2` (stereo not drawn), `CN1CN=C2SC3(COC(c4ccccc4Cl)OC3)C(=O)N2C1` (stereo not drawn) is lower in displacement: 9.2% for the first, -0.1% for the second.

Compared with `O=[N+]([O-])c1ccc(S(=O)(=O)N2CCSC2c2ccc3c4c(cccc24)CC3)cc1` (stereo not drawn), `O=C1c2ccc(-c3nc4ccccc4c(=O)o3)cc2C(=O)N1c1ccc([N+](=O)[O-])cc1` is lower in displacement: 12.8% for the first, -6.6% for the second.

Going from `O=C1OC(Nc2cccc3ccccc23)(c2ccccc2)c2ccccc21` (stereo not drawn) to `Cc1cc(NNC(=O)C(c2ccccc2)c2ccccc2)c2ccc(C)c(C)c2n1`, the displacement falls from 3.2% to -7.4%.

Going from `O=C(Nc1ncccn1)c1ccc([N+](=O)[O-])o1` to `COc1ccc(CC(=O)Nc2cc(NC(=O)Cc3ccc(OC)cc3)cc(C(=O)NC(C)(C)C)c2)cc1`, the displacement rises from 0.3% to 13.1%.

Going from `CCOc1cc(/C=C2\SC(N)=NC2=O)cc(Cl)c1O` to `COc1cccc(CN2CCN(Cc3cc(Br)ccc3O)CC2)c1OC`, the displacement rises from -91.3% to 5.1%.
